# In the supplement of paper PMC12423691:
# The other results are listed elsewhere or left out. Binding of human transcription factors and regulators to the viral nucleoprotein by AlphaScreen, crude cell-free proteins, amounts not normalised, one pass. Fold of the Venus control; higher = more signal. No active / inactive call. Single-pass screen; sequences are the whole Swiss-Prot entries looked up by name.
# B1: AEBP1, Q8IUX7 (protein)
# chain: MAAVRGAPLLSCLLALLALCPGGRPQTVLTDDEIEEFLEGFLSELEPEPREDDVEAPPPPEPTPRVRKAQAGGKPGKRPGTAAEVPPEKTKDKGKKGKKDKGPKVPKESLEGSPRPPKKGKEKPPKATKKPKEKPPKATKKPKEKPPKATKKPKEKPPKATKKPPSGKRPPILAPSETLEWPLPPPPSPGPEELPQEGGAPLSNNWQNPGEETHVEAREHQPEPEEETEQPTLDYNDQIEREDYEDFEYIRRQKQPRPPPSRRRRPERVWPEPPEEKAPAPAPEERIEPPVKPLLPPLPPDYGDGYVIPNYDDMDYYFGPPPPQKPDAERQTDEEKEELKKPKKEDSSPKEETDKWAVEKGKDHKEPRKGEELEEEWTPTEKVKCPPIGMESHRIEDNQIRASSMLRHGLGAQRGRLNMQTGATEDDYYDGAWCAEDDARTQWIEVDTRRTTRFTGVITQGRDSSIHDDFVTTFFVGFSNDSQTWVMYTNGYEEMTFHGNVDKDTPVLSELPEPVVARFIRIYPLTWNGSLCMRLEVLGCSVAPVYSYYAQNEVVATDDLDFRHHSYKDMRQLMKVVNEECPTITRTYSLGKSSRGLKIYAMEISDNPGEHELGEPEFRYTAGIHGNEVLGRELLLLLMQYLCREYRDGNPRVRSLVQDTRIHLVPSLNPDGYEVAAQMGSEFGNWALGLWTEEGFDIFEDFPDLNSVLWGAEERKWVPYRVPNNNLPIPERYLSPDATVSTEVRAIIAWMEKNPFVLGANLNGGERLVSYPYDMARTPTQEQLLAAAMAAARGEDEDEVSEAQETPDHAIFRWLAISFASAHLTLTEPYRGGCQAQDYTGGMGIVNGAKWNPRTGTINDFSYLHTNCLELSFYLGCDKFPHESELPREWENNKEALLTFMEQVHRGIKGVVTDEQGIPIANATISVSGINHGVKTASGGDYWRILNPGEYRVTAHAEGYTPSAKTCNVDYDIGATQCNFILARSNWKRIREIMAMNGNRPIPHIDPSRPMTPQQRRLQQRRLQHRLRLRAQMRLRRLNATTTLGPHTVPPTLPPAPATTLSTTIEPWGLIPPTTAGWEESETETYTEVVTEFGTEVEPEFGTKVEPEFETQLEPEFETQLEPEFEEEEEEEKEEEIATGQAFPFTTVETYTVNFGDF
# B2: NOD1, Q9Y239 (protein)
# chain: MEEQGHSEMEIIPSESHPHIQLLKSNRELLVTHIRNTQCLVDNLLKNDYFSAEDAEIVCACPTQPDKVRKILDLVQSKGEEVSEFFLYLLQQLADAYVDLRPWLLEIGFSPSLLTQSKVVVNTDPVSRYTQQLRHHLGRDSKFVLCYAQKEELLLEEIYMDTIMELVGFSNESLGSLNSLACLLDHTTGILNEQGETIFILGDAGVGKSMLLQRLQSLWATGRLDAGVKFFFHFRCRMFSCFKESDRLCLQDLLFKHYCYPERDPEEVFAFLLRFPHVALFTFDGLDELHSDLDLSRVPDSSCPWEPAHPLVLLANLLSGKLLKGASKLLTARTGIEVPRQFLRKKVLLRGFSPSHLRAYARRMFPERALQDRLLSQLEANPNLCSLCSVPLFCWIIFRCFQHFRAAFEGSPQLPDCTMTLTDVFLLVTEVHLNRMQPSSLVQRNTRSPVETLHAGRDTLCSLGQVAHRGMEKSLFVFTQEEVQASGLQERDMQLGFLRALPELGPGGDQQSYEFFHLTLQAFFTAFFLVLDDRVGTQELLRFFQEWMPPAGAATTSCYPPFLPFQCLQGSGPAREDLFKNKDHFQFTNLFLCGLLSKAKQKLLRHLVPAAALRRKRKALWAHLFSSLRGYLKSLPRVQVESFNQVQAMPTFIWMLRCIYETQSQKVGQLAARGICANYLKLTYCNACSADCSALSFVLHHFPKRLALDLDNNNLNDYGVRELQPCFSRLTVLRLSVNQITDGGVKVLSEELTKYKIVTYLGLYNNQITDVGARYVTKILDECKGLTHLKLGKNKITSEGGKYLALAVKNSKSISEVGMWGNQVGDEGAKAFAEALRNHPSLTTLSLASNGISTEGGKSLARALQQNTSLEILWLTQNELNDEVAESLAEMLKVNQTLKHLWLIQNQITAKGTAQLADALQSNTGITEICLNGNLIKPEEAKVYEDEKRIICF
# B3: TRAF3, Q13114 (protein)
# chain: MESSKKMDSPGALQTNPPLKLHTDRSAGTPVFVPEQGGYKEKFVKTVEDKYKCEKCHLVLCSPKQTECGHRFCESCMAALLSSSSPKCTACQESIVKDKVFKDNCCKREILALQIYCRNESRGCAEQLMLGHLLVHLKNDCHFEELPCVRPDCKEKVLRKDLRDHVEKACKYREATCSHCKSQVPMIALQKHEDTDCPCVVVSCPHKCSVQTLLRSELSAHLSECVNAPSTCSFKRYGCVFQGTNQQIKAHEASSAVQHVNLLKEWSNSLEKKVSLLQNESVEKNKSIQSLHNQICSFEIEIERQKEMLRNNESKILHLQRVIDSQAEKLKELDKEIRPFRQNWEEADSMKSSVESLQNRVTELESVDKSAGQVARNTGLLESQLSRHDQMLSVHDIRLADMDLRFQVLETASYNGVLIWKIRDYKRRKQEAVMGKTLSLYSQPFYTGYFGYKMCARVYLNGDGMGKGTHLSLFFVIMRGEYDALLPWPFKQKVTLMLMDQGSSRRHLGDAFKPDPNSSSFKKPTGEMNIASGCPVFVAQTVLENGTYIKDDTIFIKVIVDTSDLPDP
# B4: TRIM37, O94972 (protein)
# chain: MDEQSVESIAEVFRCFICMEKLRDARLCPHCSKLCCFSCIRRWLTEQRAQCPHCRAPLQLRELVNCRWAEEVTQQLDTLQLCSLTKHEENEKDKCENHHEKLSVFCWTCKKCICHQCALWGGMHGGHTFKPLAEIYEQHVTKVNEEVAKLRRRLMELISLVQEVERNVEAVRNAKDERVREIRNAVEMMIARLDTQLKNKLITLMGQKTSLTQETELLESLLQEVEHQLRSCSKSELISKSSEILMMFQQVHRKPMASFVTTPVPPDFTSELVPSYDSATFVLENFSTLRQRADPVYSPPLQVSGLCWRLKVYPDGNGVVRGYYLSVFLELSAGLPETSKYEYRVEMVHQSCNDPTKNIIREFASDFEVGECWGYNRFFRLDLLANEGYLNPQNDTVILRFQVRSPTFFQKSRDQHWYITQLEAAQTSYIQQINNLKERLTIELSRTQKSRDLSPPDNHLSPQNDDALETRAKKSACSDMLLEGGPTTASVREAKEDEEDEEKIQNEDYHHELSDGDLDLDLVYEDEVNQLDGSSSSASSTATSNTEENDIDEETMSGENDVEYNNMELEEGELMEDAAAAGPAGSSHGYVGSSSRISRRTHLCSAATSSLLDIDPLILIHLLDLKDRSSIENLWGLQPRPPASLLQPTASYSRKDKDQRKQQAMWRVPSDLKMLKRLKTQMAEVRCMKTDVKNTLSEIKSSSAASGDMQTSLFSADQAALAACGTENSGRLQDLGMELLAKSSVANCYIRNSTNKKSNSPKPARSSVAGSLSLRRAVDPGENSRSKGDCQTLSEGSPGSSQSGSRHSSPRALIHGSIGDILPKTEDRQCKALDSDAVVVAVFSGLPAVEKRRKMVTLGANAKGGHLEGLQMTDLENNSETGELQPVLPEGASAAPEEGMSSDSDIECDTENEEQEEHTSVGGFHDSFMVMTQPPDEDTHSSFPDGEQIGPEDLSFNTDENSGR
# B5: FOXD4L1, Q9NU39 (protein)
# chain: MNLPRAERPRSTPQRSLRDSDGEDGKIDVLGEEEDEDEVEDEEEEASQKFLEQSLQPGLQVARWGGVALPREHIEGGGPSDPSEFGTEFRAPPRSAAASEDARQPAKPPYSYIALITMAILQSPHKRLTLSGICAFISGRFPYYRRKFPAWQNSIRHNLSLNDCFVKIPREPGHPGKGTYWSLDPASQDMFDNGSFLRRRKRFKRHQLTPGAHLPHPFPLPAAHAALHNPRPGPLLGAPALPQPVPGAYPNTAPGRRPYALLHPHPPRYLLLSAPAYAGAPKKAEGADLATPGTLPVLQPSLGPQPWEEGKGLASPPGGGCISFSIESIMQGVRGAGTGAAQSLSPTAWSYCPLLQRPSSLSDNFAATAAASGGGLRQRLRSHQGRGAGRAPVGRVGAAAVSGGGRGL
# B6: CREB3L1, Q96BA8 (protein)
# chain: MDAVLEPFPADRLFPGSSFLDLGDLNESDFLNNAHFPEHLDHFTENMEDFSNDLFSSFFDDPVLDEKSPLLDMELDSPTPGIQAEHSYSLSGDSAPQSPLVPIKMEDTTQDAEHGAWALGHKLCSIMVKQEQSPELPVDPLAAPSAMAAAAAMATTPLLGLSPLSRLPIPHQAPGEMTQLPVIKAEPLEVNQFLKVTPEDLVQMPPTPPSSHGSDSDGSQSPRSLPPSSPVRPMARSSTAISTSPLLTAPHKLQGTSGPLLLTEEEKRTLIAEGYPIPTKLPLTKAEEKALKRVRRKIKNKISAQESRRKKKEYVECLEKKVETFTSENNELWKKVETLENANRTLLQQLQKLQTLVTNKISRPYKMAATQTGTCLMVAALCFVLVLGSLVPCLPEFSSGSQTVKEDPLAADGVYTASQMPSRSLLFYDDGAGLWEDGRSTLLPMEPPDGWEINPGGPAEQRPRDHLQHDHLDSTHETTKYLSEAWPKDGGNGTSPDFSHSKEWFHDRDLGPNTTIKLS
# B7: TNFSF11, O14788 (protein)
# chain: MRRASRDYTKYLRGSEEMGGGPGAPHEGPLHAPPPPAPHQPPAASRSMFVALLGLGLGQVVCSVALFFYFRAQMDPNRISEDGTHCIYRILRLHENADFQDTTLESQDTKLIPDSCRRIKQAFQGAVQKELQHIVGSQHIRAEKAMVDGSWLDLAKRSKLEAQPFAHLTINATDIPSGSHKVSLSSWYHDRGWAKISNMTFSNGKLIVNQDGFYYLYANICFRHHETSGDLATEYLQLMVYVTKTSIKIPSSHTLMKGGSTKYWSGNSEFHFYSINVGGFFKLRSGEEISIEVSNPSLLDPDQDATYFGAFKVRDID
# Biological target: nucleoprotein N of Crimean-Congo hemorrhagic fever virus
# Assay: AlphaScreen luminescence signal relative to Venus negative control (fold); higher = stronger binding to CCHFV N
# Experimental: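 AlphaScreen binding of cell-free made, FLAG-GST-tagged human transcription factors and regulators (crude translation products) to biotinylated N protein; signal as fold of the FLAG-GST-Venus control. One pass.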
row,Binder,AlphaScreen luminescence signal
1,B1,4.93
2,B2,2.33
3,B3,1.86
4,B4,1.44
5,B5,2.51
6,B6,2.05
7,B7,2.65
